Data: the antibiotic and cytotoxicity screens of Wong et al. (2023)
The list shows a part of the results.

tested on: HepG2; experiment: cytotoxicity call (relative viability < 0.9); details: 10 µM

| SMILES | cytotoxicity call |
| --- | --- |
| CCCC#Cc1cnc2c(c1)C(=O)N([C@@H](C)CO)C[C@H](C)[C@H](CN(C)S(=O)(=O)c1cccc(OC)c1)O2 | inactive |
| C[C@H]1CN([C@@H](C)CO)S(=O)(=O)c2ccc(-c3ccncc3)cc2O[C@@H]1CN(C)S(=O)(=O)c1ccccc1F | inactive |
| C[C@@H]1CN([C@H](C)CO)C(=O)c2cc(N(C)C)ccc2O[C@@H](C)CCCCO[C@H]1CN(C)Cc1ccc(C(F)(F)F)cc1 | inactive |
| C[C@@H]1CN([C@@H](C)CO)C(=O)CCCn2nncc2CO[C@@H]1CN(C)S(=O)(=O)c1cn(C)cn1 | inactive |
| COc1ccc(NC(=O)Nc2ccc3c(c2)C(=O)N([C@@H](C)CO)C[C@H](C)[C@H](CN(C)CC2CCCCC2)OCCCC[C@H](C)O3)cc1 | active |
| CN(C)Cc1c(C(=O)N/N=C/c2ccncc2)nnn1-c1nonc1N | active |
| C[C@@H]1CN([C@@H](C)CO)C(=O)c2cc(NS(=O)(=O)c3ccccc3)ccc2O[C@@H](C)CCCCO[C@@H]1CN(C)C(=O)Nc1ccccc1 | inactive |
| COc1ccc(S(=O)(=O)N(C)C[C@@H]2Oc3ccc(NC(=O)Nc4ccc(Cl)c(Cl)c4)cc3CC(=O)N([C@@H](C)CO)C[C@@H]2C)cc1Cl | active |
| COc1ccc(S(=O)(=O)Nc2ccc3c(c2)CC(=O)N([C@H](C)CO)C[C@@H](C)[C@H](CN(C)C(=O)Nc2c(C)noc2C)O3)cc1 | inactive |
| COc1cc(O)cc(OC)c1OC | inactive |
| COc1ccc(S(=O)(=O)Nc2ccc3c(c2)C(=O)N([C@@H](C)CO)C[C@@H](C)[C@H](CN(C)Cc2ccc(C(F)(F)F)cc2)OCCCC[C@H](C)O3)cc1 | active |
| CCC(=O)N(C)C[C@H]1Oc2ncc(C#C[C@H](C)O)cc2C(=O)N([C@@H](C)CO)C[C@@H]1C | inactive |
| Cc1noc(C)c1NC(=O)N(C)C[C@H]1Oc2ccc(NC(=O)NC(C)C)cc2C(=O)N([C@@H](C)CO)C[C@@H]1C | inactive |
| CC(=O)C1(O)CCC2C3CC(C)C4=CC(=O)C=CC4(C)C3(F)C(O)CC21C (stereo unspecified) | inactive |
| N#C[C@@H]1C[C@@H]2C[C@@H]2N1C(=O)[C@@H](N)[C@@]12C[C@@H]3C[C@@H](C[C@@](O)(C3)C1)C2 | inactive |
| O=C(C[C@H]1CC[C@H](NC(=O)Nc2ccc3c(c2)OCO3)[C@@H](CO)O1)NCCCN1CCOCC1 | inactive |
| Cc1noc(C)c1S(=O)(=O)N(C)C[C@@H]1OCCCC[C@H](C)Oc2ccc(NS(C)(=O)=O)cc2C(=O)N([C@H](C)CO)C[C@H]1C | inactive |
| CN1C(=O)/C(=C\NCc2ccccc2)C(=O)c2c1n(C)c(=O)n(C)c2=O | inactive |
| Oc1ccc(C2(c3ccccc3F)CCC(F)(F)CC2)cc1 | inactive |
| C[C@H]1CCCCO[C@H](CN(C)CC2CCCCC2)[C@@H](C)CN([C@@H](C)CO)C(=O)c2cc(NC(=O)CCC(F)(F)F)ccc2O1 | inactive |
| COc1ccc2c(c1)OC1COc3cc(OC)c(OC)cc3C1C2=O (stereo unspecified) | active |
| NCC[C@@H]1CC[C@@H](NC(=O)C2CCCC2)[C@@H](CO)O1 | inactive |
| O=C(C[C@H]1C[C@@H]2c3cc(NS(=O)(=O)c4ccc(F)cc4)ccc3O[C@@H]2[C@@H](CO)O1)NCc1ccccc1F | inactive |
| O=C(C[C@@H]1C[C@@H]2c3cc(NC(=O)Cc4ccncc4)ccc3O[C@@H]2[C@H](CO)O1)NCc1cc(F)ccc1F | inactive |
| CN(C)CC(=O)N[C@@H]1C=C[C@@H](CC(=O)NCCN2CCCCC2)O[C@H]1CO | inactive |
| C[C@H](CO)N1C[C@H](C)[C@@H](CN(C)Cc2ccc(C(F)(F)F)cc2)Oc2ccc(NC(=O)C3CCCCC3)cc2C1=O | inactive |
| Cc1ccc(S(=O)(=O)N(C)C[C@@H]2Oc3ncc(-c4ccncc4)cc3C(=O)N([C@H](C)CO)C[C@H]2C)cc1 | inactive |
| C[C@H]1CN([C@@H](C)CO)C(=O)Cc2cc(NC(=O)CCN3CCOCC3)ccc2O[C@@H]1CN(C)S(=O)(=O)c1cn(C)cn1 | inactive |
| COc1ccc(NC(=O)N(C)C[C@@H]2Oc3c(NC(=O)c4ccc(-c5nccs5)cc4)cccc3C(=O)N([C@@H](C)CO)C[C@@H]2C)cc1 | inactive |
| C[C@@H]1CN([C@H](C)CO)C(=O)c2cc(NS(=O)(=O)c3ccc(Cl)cc3)ccc2O[C@@H](C)CCCCO[C@H]1CN(C)C(=O)Nc1ccccc1 | inactive |

tested on: S. aureus RN4220; experiment: growth inhibition call (relative growth <= 0.2); details: 50 µM

| SMILES | growth inhibition call |
| --- | --- |
| C=CCOC(=O)[C@@H]1[C@H]2C(=O)O[C@H](c3ccccc3)[C@H](c3ccccc3)N2[C@H](c2ccc(OCCOC(=O)[C@H]3C[C@H]4C(=O)N5CCC[C@H]5C(=O)N4[C@H]3c3ccc(O)cc3)cc2)[C@@]12C(=O)Nc1ccc(I)cc12 | inactive |
| Cc1noc(C)c1NC(=O)Nc1cccc2c1O[C@H](CN(C)C(=O)Nc1cccc3ccccc13)[C@@H](C)CN([C@H](C)CO)C2=O | inactive |
| C[C@H]1NC(=O)[C@H](Cc2ccccc2)NC(=O)[C@@]23C(=O)N[C@@H](Cc4ccccc4)[C@@H]2[C@H](C)[C@@]2(C)O[C@H]2[C@H]3/C=C/C/C=C\CNC1=O | inactive |
| CN(C)CC(=O)N1[C@@H]2c3ccc(-c4cccnc4)c(=O)n3C[C@H]1[C@H](CO)[C@H]2C(=O)NC1CCC1 | inactive |
| O=C(NCC[C@H]1CCCCN1S(=O)(=O)c1ccc(F)cc1)C(=O)NCCN1CCOCC1 | inactive |
| C[C@@H]1CCCCO[C@H](CN(C)C(=O)NC2CCCCC2)[C@H](C)CN([C@H](C)CO)C(=O)c2cc(NC(=O)NC3CCCCC3)ccc2O1 | inactive |
| CCOC(=O)c1c(CN2CCN(c3ccc(C)cc3)CC2)n(-c2ccccc2)c2cc(Br)c(OC)cc12 | inactive |
| C[C@H]1CN([C@@H](C)CO)C(=O)c2cc(-c3cncnc3)cnc2O[C@@H]1CN(C)C(=O)CN1CCOCC1 | inactive |
| Cc1noc(C)c1NC(=O)Nc1cccc2c1O[C@@H](CN(C)Cc1ccc(C(F)(F)F)cc1)[C@H](C)CN([C@@H](C)CO)C2=O | inactive |
| COc1cc2c(cc1OC)CN(C(=O)[C@@H]1[C@H]3C(=O)O[C@H](c4ccccc4)[C@H](c4ccccc4)N3[C@H](c3ccc(OCCO)cc3)[C@@]13C(=O)Nc1ccccc13)CC2 | inactive |
| CCCC#Cc1cnc2c(c1)C(=O)N([C@@H](C)CO)C[C@H](C)[C@H](CN(C)S(=O)(=O)c1cccc(OC)c1)O2 | inactive |
| C[C@H]1CN([C@@H](C)CO)S(=O)(=O)c2ccc(-c3ccncc3)cc2O[C@@H]1CN(C)S(=O)(=O)c1ccccc1F | inactive |
| C[C@@H]1CN([C@H](C)CO)C(=O)c2cc(N(C)C)ccc2O[C@@H](C)CCCCO[C@H]1CN(C)Cc1ccc(C(F)(F)F)cc1 | inactive |
| C[C@@H]1CN([C@@H](C)CO)C(=O)CCCn2nncc2CO[C@@H]1CN(C)S(=O)(=O)c1cn(C)cn1 | inactive |
| COc1ccc(NC(=O)Nc2ccc3c(c2)C(=O)N([C@@H](C)CO)C[C@H](C)[C@H](CN(C)CC2CCCCC2)OCCCC[C@H](C)O3)cc1 | inactive |
| CN(C)Cc1c(C(=O)N/N=C/c2ccncc2)nnn1-c1nonc1N | inactive |
| C[C@@H]1CN([C@@H](C)CO)C(=O)c2cc(NS(=O)(=O)c3ccccc3)ccc2O[C@@H](C)CCCCO[C@@H]1CN(C)C(=O)Nc1ccccc1 | inactive |
| COc1ccc(S(=O)(=O)N(C)C[C@@H]2Oc3ccc(NC(=O)Nc4ccc(Cl)c(Cl)c4)cc3CC(=O)N([C@@H](C)CO)C[C@@H]2C)cc1Cl | inactive |

| SMILES | growth inhibition call |
| --- | --- |
| COc1ccc(S(=O)(=O)Nc2ccc3c(c2)CC(=O)N([C@H](C)CO)C[C@@H](C)[C@H](CN(C)C(=O)Nc2c(C)noc2C)O3)cc1 | inactive |
| COc1cc(O)cc(OC)c1OC | inactive |
| COc1ccc(S(=O)(=O)Nc2ccc3c(c2)C(=O)N([C@@H](C)CO)C[C@@H](C)[C@H](CN(C)Cc2ccc(C(F)(F)F)cc2)OCCCC[C@H](C)O3)cc1 | inactive |
| CCC(=O)N(C)C[C@H]1Oc2ncc(C#C[C@H](C)O)cc2C(=O)N([C@@H](C)CO)C[C@@H]1C | inactive |
| Cc1noc(C)c1NC(=O)N(C)C[C@H]1Oc2ccc(NC(=O)NC(C)C)cc2C(=O)N([C@@H](C)CO)C[C@@H]1C | inactive |
| CC(=O)C1(O)CCC2C3CC(C)C4=CC(=O)C=CC4(C)C3(F)C(O)CC21C (stereo unspecified) | inactive |
| N#C[C@@H]1C[C@@H]2C[C@@H]2N1C(=O)[C@@H](N)[C@@]12C[C@@H]3C[C@@H](C[C@@](O)(C3)C1)C2 | inactive |
| O=C(C[C@H]1CC[C@H](NC(=O)Nc2ccc3c(c2)OCO3)[C@@H](CO)O1)NCCCN1CCOCC1 | inactive |
| Cc1noc(C)c1S(=O)(=O)N(C)C[C@@H]1OCCCC[C@H](C)Oc2ccc(NS(C)(=O)=O)cc2C(=O)N([C@H](C)CO)C[C@H]1C | inactive |
| CN1C(=O)/C(=C\NCc2ccccc2)C(=O)c2c1n(C)c(=O)n(C)c2=O | inactive |
| Oc1ccc(C2(c3ccccc3F)CCC(F)(F)CC2)cc1 | active |
| C[C@H]1CCCCO[C@H](CN(C)CC2CCCCC2)[C@@H](C)CN([C@@H](C)CO)C(=O)c2cc(NC(=O)CCC(F)(F)F)ccc2O1 | inactive |
| COc1ccc2c(c1)OC1COc3cc(OC)c(OC)cc3C1C2=O (stereo unspecified) | inactive |
| NCC[C@@H]1CC[C@@H](NC(=O)C2CCCC2)[C@@H](CO)O1 | inactive |
| O=C(C[C@H]1C[C@@H]2c3cc(NS(=O)(=O)c4ccc(F)cc4)ccc3O[C@@H]2[C@@H](CO)O1)NCc1ccccc1F | inactive |
| O=C(C[C@@H]1C[C@@H]2c3cc(NC(=O)Cc4ccncc4)ccc3O[C@@H]2[C@H](CO)O1)NCc1cc(F)ccc1F | inactive |
| CN(C)CC(=O)N[C@@H]1C=C[C@@H](CC(=O)NCCN2CCCCC2)O[C@H]1CO | inactive |
| C[C@H](CO)N1C[C@H](C)[C@@H](CN(C)Cc2ccc(C(F)(F)F)cc2)Oc2ccc(NC(=O)C3CCCCC3)cc2C1=O | inactive |
